# Test results published in the supplement of paper PMC8728848.
# Some of the results follow.
# B1: OrysaEULS2 (Oryza sativa) (protein)
# chain: MVYCRANPNYAMTARNGAVVLAPANPKDEYQHWIKDMRWSTSIKDEEGYPAFALVNKATGQAIKHSLGQSHPVRLVPYNPEVMDESVLWTESRDVGNGFRCIRMVNNIYLNFDAFHGDKYHGGVRDGTDIVLWKWCEGDNQRWKIQPYYILEQKLISEEDLNSAVDHHHHHH
# Tests used:
# Experiment in all cases: glycan array binding signal (z-score within array); higher = stronger binding
# Conditions in all cases: glycan notation: IUPAC condensed, linker removed
# [1] = target: GlcNAc(b1-3)Gal(b1-4)GlcNAc
# In short: (§1)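 Arrays were curated from the Consortium for Functional Glycomics database, 3228 in total, and kept only where the protein sequence was available. Binding is expressed as a within-array Z-score. This score was averaged across arrays of the same protein sequence at different concentrations or buffers and across linkers, and negative values can be read as non-binding.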
# [2] = target: GlcNAc(b1-3)Gal(b1-4)GlcNAc(b1-2)Man(a1-3)[GlcNAc(b1-3)Gal(b1-4)GlcNAc(b1-2)Man(a1-6)]Man(b1-4)GlcNAc(b1-4)GlcNAc
# In short: as §1
# [3] = target: GlcNAc(b1-3)Gal(b1-4)GlcNAc(b1-2)Man(a1-3)[GlcNAc(b1-3)Gal(b1-4)GlcNAc(b1-2)Man(a1-6)]Man(b1-4)GlcNAc(b1-4)[Fuc(a1-6)]GlcNAc
# In short: as §1
# [4] = target: GlcNAc(b1-3)Gal(b1-4)GlcNAc(b1-2)[GlcNAc(b1-3)Gal(b1-4)GlcNAc(b1-6)]Man(a1-6)[GlcNAc(b1-3)Gal(b1-4)GlcNAc(b1-2)Man(a1-3)]Man(b1-4)GlcNAc(b1-4)GlcNAc
# In short: as §1
# [5] = target: GlcNAc(b1-3)Gal(b1-4)GlcNAc(b1-3)Gal(b1-4)GlcNAc
# In short: as §1
# [6] = target: GlcNAc(b1-3)Gal(b1-4)GlcNAc(b1-3)Gal(b1-4)GlcNAc(b1-2)Man(a1-3)[GlcNAc(b1-3)Gal(b1-4)GlcNAc(b1-3)Gal(b1-4)GlcNAc(b1-2)Man(a1-6)]Man(b1-4)GlcNAc(b1-4)GlcNAc
# In short: as §1
# [7] = target: GlcNAc(b1-3)Gal(b1-4)GlcNAc(b1-3)Gal(b1-4)GlcNAc(b1-2)Man(a1-3)[GlcNAc(b1-3)Gal(b1-4)GlcNAc(b1-3)Gal(b1-4)GlcNAc(b1-2)Man(a1-6)]Man(b1-4)GlcNAc(b1-4)[Fuc(a1-6)]GlcNAc
# In short: as §1
# [8] = target: GlcNAc(b1-3)Gal(b1-4)GlcNAc(b1-3)Gal(b1-4)GlcNAc(b1-2)[GlcNAc(b1-3)Gal(b1-4)GlcNAc(b1-3)Gal(b1-4)GlcNAc(b1-6)]Man(a1-6)[GlcNAc(b1-3)Gal(b1-4)GlcNAc(b1-3)Gal(b1-4)GlcNAc(b1-2)Man(a1-3)]Man(b1-4)GlcNAc(b1-4)[Fuc(a1-6)]GlcNAc
# In short: as §1
# [9] = target: GlcNAc(b1-3)Gal(b1-4)GlcNAc(b1-3)Gal(b1-4)GlcNAc(b1-3)Gal(b1-4)GlcNAc(b1-2)Man(a1-3)[GlcNAc(b1-3)Gal(b1-4)GlcNAc(b1-3)Gal(b1-4)GlcNAc(b1-3)Gal(b1-4)GlcNAc(b1-2)Man(a1-6)]Man(b1-4)GlcNAc(b1-4)GlcNAc
# In short: as §1
# [10] = target: GlcNAc(b1-3)Gal(b1-4)GlcNAc(b1-3)Gal(b1-4)GlcNAc(b1-3)Gal(b1-4)GlcNAc(b1-2)Man(a1-3)[GlcNAc(b1-3)Gal(b1-4)GlcNAc(b1-3)Gal(b1-4)GlcNAc(b1-3)Gal(b1-4)GlcNAc(b1-2)Man(a1-6)]Man(b1-4)GlcNAc(b1-4)[Fuc(a1-6)]GlcNAc
# In short: as §1
# [11] = target: GlcNAc(b1-3)Gal(b1-4)GlcNAc(b1-3)Gal(b1-4)GlcNAc(b1-3)Gal(b1-4)GlcNAc(b1-2)[GlcNAc(b1-3)Gal(b1-4)GlcNAc(b1-3)Gal(b1-4)GlcNAc(b1-3)Gal(b1-4)GlcNAc(b1-6)]Man(a1-6)[GlcNAc(b1-3)Gal(b1-4)GlcNAc(b1-3)Gal(b1-4)GlcNAc(b1-3)Gal(b1-4)GlcNAc(b1-2)Man(a1-3)]Man(b1-4)GlcNAc(b1-4)[Fuc(a1-6)]GlcNAc
# In short: as §1
# [12] = target: GlcNAc(b1-3)Gal(b1-4)GlcNAc(b1-3)Gal(b1-4)GlcNAc(b1-3)Gal(b1-4)GlcNAc(b1-3)Gal(b1-4)GlcNAc(b1-2)Man(a1-3)[GlcNAc(b1-3)Gal(b1-4)GlcNAc(b1-3)Gal(b1-4)GlcNAc(b1-3)Gal(b1-4)GlcNAc(b1-3)Gal(b1-4)GlcNAc(b1-2)Man(a1-6)]Man(b1-4)GlcNAc(b1-4)GlcNAc
# In short: as §1
# [13] = target: GlcNAc(b1-3)Gal(b1-4)GlcNAc(b1-3)Gal(b1-4)GlcNAc(b1-3)Gal(b1-4)GlcNAc(b1-3)Gal(b1-4)GlcNAc(b1-2)Man(a1-3)[GlcNAc(b1-3)Gal(b1-4)GlcNAc(b1-3)Gal(b1-4)GlcNAc(b1-3)Gal(b1-4)GlcNAc(b1-3)Gal(b1-4)GlcNAc(b1-2)Man(a1-6)]Man(b1-4)GlcNAc(b1-4)[Fuc(a1-6)]GlcNAc
# In short: as §1
# [14] = target: GlcNAc(b1-3)Gal(b1-4)GlcNAc(b1-3)Gal(b1-4)GlcNAc(b1-3)Gal(b1-4)GlcNAc(b1-3)Gal(b1-4)GlcNAc(b1-2)[GlcNAc(b1-3)Gal(b1-4)GlcNAc(b1-3)Gal(b1-4)GlcNAc(b1-3)Gal(b1-4)GlcNAc(b1-3)Gal(b1-4)GlcNAc(b1-6)]Man(a1-6)[GlcNAc(b1-3)Gal(b1-4)GlcNAc(b1-3)Gal(b1-4)GlcNAc(b1-3)Gal(b1-4)GlcNAc(b1-3)Gal(b1-4)GlcNAc(b1-2)Man(a1-3)]Man(b1-4)GlcNAc(b1-4)[Fuc(a1-6)]GlcNAc
# In short: as §1
# [15] = target: GlcNAc(b1-3)Gal(b1-4)GlcNAc(b1-3)Gal(b1-4)GlcNAc(b1-3)GalNAc
# In short: as §1
# [16] = target: GlcNAc(b1-3)Gal(b1-4)GlcNAc(b1-3)GalNAc
# In short: as §1
# [17] = target: GlcNAc(b1-3)Gal(b1-4)GlcNAc(b1-3)[GlcNAc(b1-3)Gal(b1-4)GlcNAc(b1-3)]GalNAc
# In short: as §1
# [18] = target: GlcNAc(b1-3)Gal(b1-4)GlcNAc(b1-6)[Gal(b1-3)]GalNAc
# In short: as §1
# [19] = target: GlcNAc(b1-3)Gal(b1-4)GlcNAc(b1-6)[GlcNAc(b1-3)Gal(b1-3)]GalNAc
# In short: as §1
# [20] = target: GlcNAc(b1-3)Gal(b1-4)GlcNAc(b1-6)[GlcNAc(b1-3)]Gal(b1-4)GlcNAc
# In short: as §1
# [21] = target: GlcNAc(b1-3)GalNAc
# In short: as §1
# [22] = target: GlcNAc(b1-3)Man
# In short: as §1
# [23] = target: GlcNAc(b1-3)[GlcNAc(b1-4)][GlcNAc(b1-6)]GlcNAc
# In short: as §1
binder,measurement,setting,value
B1,glycan array binding signal (z-score),[1],-0.186
same,glycan array binding signal (z-score),[2],0.768
same,glycan array binding signal (z-score),[3],0.035
same,glycan array binding signal (z-score),[4],0.674
same,glycan array binding signal (z-score),[5],-0.202
same,glycan array binding signal (z-score),[6],0.555
same,glycan array binding signal (z-score),[7],0.117
same,glycan array binding signal (z-score),[8],0.084
same,glycan array binding signal (z-score),[9],0.247
same,glycan array binding signal (z-score),[10],-0.037
same,glycan array binding signal (z-score),[11],-0.038
same,glycan array binding signal (z-score),[12],0.451
same,glycan array binding signal (z-score),[13],0.29
same,glycan array binding signal (z-score),[14],-0.196
same,glycan array binding signal (z-score),[15],-0.221
same,glycan array binding signal (z-score),[16],-0.247
same,glycan array binding signal (z-score),[17],-0.281
same,glycan array binding signal (z-score),[18],-0.27
same,glycan array binding signal (z-score),[19],-0.224
same,glycan array binding signal (z-score),[20],-0.231
same,glycan array binding signal (z-score),[21],-0.203
same,glycan array binding signal (z-score),[22],-0.189
same,glycan array binding signal (z-score),[23],-0.183
